Results as given in PubChem BioAssay AID924 (National Center for Advancing Translational Sciences (NCATS), 2007).
The campaign covered roughly 130,000 compounds. About 1,200 (0.92%) were called active. The inconclusive results got no clear call from the source; some entries with a clear call stand among them for comparison. Calls follow the shape of the dose curve; as a rule, active = well fitted cell-killing curve with a large enough effect; inconclusive = small, poorly fitted or top-dose-only effect; inactive = no such curve, though single readings can be large or run the other way. Potencies beside an inconclusive call are fits to weak or partial responses and may not hold up.

Experiment: qHTS Screen for Compounds that Selectively Target Cancer Cells with p53 Mutations: Cytotoxicity of p53ts Cells at the Permissive Temperature; also: nearly all actives have a fitted effect of over 55% in size;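 as to activity change, negative = cytotoxicity: 0% = DMSO and -100% = full killing by reference compound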
Settings: H1299-p53A138V at 32C, ATP luminescence viability, 24 h; activity change, negative = cytotoxicity: at 46.1 µM (top of the series)
Method in brief: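 H1299-p53 A138V cells (temperature-sensitive p53) exposed 24 h to up to 46 uM compound at 32C, where p53 is wild-type in conformation. Viability read as ATP luminescence and normalised to DMSO and 100 uM tamoxifen. AC50 fitted with the Hill equation.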
Potency is read from the fitted curve at half-maximal effect; tags tell the direction and shape of the fitted curve.

Question: Which Potency does the source give for CC(=O)Nc1ccc(NC(=O)c2oc3ccc4c(c3c2C)C(=O)CC(C)(C)O4)cc1 here?
Answer: Its Potency is inconclusive: 3.16 µM [cytotoxic, full curve].

Question: Which Potency does the source give for Cc1ccc(CS(=O)(=O)c2ncc(Cl)c(C(=O)Nc3nc4ccc(F)cc4s3)n2)cc1 here?
Answer: Its Potency is active: 12.6 µM.

Question: Which “activity change, negative = cytotoxicity” value does the source give for Cc1cnc(CNc2ncncc2-c2ccoc2)cn1 here?
Answer: Its value is inactive: 8.29%.

Question: Which Potency does the source give for CCc1noc(-c2ccc(N3CCCCC3C)c([N+](=O)[O-])c2)n1 (stereo not given) here?
Answer: Its Potency is inconclusive: 12.6 µM [cytotoxic, single point].

Question: For Cc1ccc(NC(=O)CN2C(=O)C3(SCC(=O)N3c3cccc(Cl)c3)c3ccccc32)cc1C (stereo not given), which Potency is on record?
Answer: Its Potency is inconclusive: 6.31 µM [cytotoxic, full curve, poor fit].

Question: For Nc1c(C(=O)Nc2ccc(C(=O)O)cc2)sc2nc3c(cc12)CCCC3, which Potency is on record?
Answer: Its Potency is inconclusive: 1.41 µM [cytotoxic, full curve].

Question: For CCc1ccccc1S(=O)(=O)Cc1ccc(C(=O)N2CCN(c3ccccn3)CC2)o1, which Potency is on record?
Answer: Its Potency is inconclusive: 31.6 µM [cytotoxic, single point].

Question: With Cc1ccc(SC/C(O)=C(\C#N)c2nc3ccccc3s2)cc1 as the compound, how does the Potency read?
Answer: The Potency was inconclusive: 15.8 µM [cytotoxic, single point].

Question: For Cc1ccc(C(=O)N2CCCCCC2)cc1Br, which “activity change, negative = cytotoxicity” value is on record?
Answer: Its value is inactive: 4.16%.

Question: For COc1ccc(NC(=O)C2CCC(CNS(=O)(=O)c3ccc(Br)s3)CC2)cc1OC (stereo not given), which “activity change, negative = cytotoxicity” value is on record?
Answer: Its value is inactive: -7.05%.

Question: Which “activity change, negative = cytotoxicity” value does the source give for O=C(Nc1cccc(Cl)c1)c1cnc[nH]1 here?
Answer: Its value is inactive: -7.76%.

Question: For O=C(CSc1nnc(-c2ccc(F)cc2)o1)Nc1ccc(S(=O)(=O)N2CCCCCC2)cc1, which Potency is on record?
Answer: The Potency was inconclusive: 25.1 µM [cytotoxic, single point].

Question: For Cc1cccc(CSc2nc3c(c(=O)[nH]2)C(c2cccc(O)c2)CC(=O)N3)c1 (stereo not given), which Potency is on record?
Answer: Its Potency is inconclusive: 5.62 µM [cytotoxic, single point].

Question: For Cc1ccc(O)c(N=Nc2ccccc2)n1, which Potency is on record?
Answer: Its Potency is active: 20 µM.

Question: For COc1ccc2c(c1)OC/C(=C\c1ccc(OC)c(O)c1)C2=O, which Potency is on record?
Answer: Its Potency is inconclusive: 31.6 µM [cytotoxic, single point].

Question: For CCSc1ncc(Cl)c(C(=O)Nc2nc3ccc(OC)cc3s2)n1, which “activity change, negative = cytotoxicity” value is on record?
Answer: The value was inactive: -0.206%.

Question: With COC(=O)c1ccc(Cn2c(=O)cc(C(F)(F)F)c3c(C)nn(C)c32)cc1 as the compound, how does the “activity change, negative = cytotoxicity” value read?
Answer: The value was inactive: 6.33%.

Question: For CCOc1cc(CNCCc2ccccc2)ccc1OCC(=O)NC(C)(C)C, which Potency is on record?
Answer: Its Potency is inconclusive: 35.5 µM [cytotoxic, single point].

Question: With CCN(CC)CCCN1C(=O)c2oc3ccccc3c(=O)c2C1c1cccnc1 (stereo not given) as the compound, how does the “activity change, negative = cytotoxicity” value read?
Answer: Its value is inactive: 7.77%.

Question: Which “activity change, negative = cytotoxicity” value does the source give for CC(=O)c1ccc(N2CCN(C(=O)COc3ccc(F)cc3)CC2)c(F)c1 here?
Answer: Its value is inactive: 11.1%.

Question: Which Potency does the source give for COC(=O)c1ccc2c(=O)n(CCCCCC(=O)N3CCN(c4ccc(OC)cc4)CC3)c(=O)[nH]c2c1 here?
Answer: Its Potency is inconclusive: 12.6 µM [cytotoxic, partial curve].

Question: For CCOC(=O)CSc1nc2ccc(NC(=O)c3ccccc3F)cc2s1, which Potency is on record?
Answer: The Potency was inconclusive: 15.8 µM [cytotoxic, single point].

Question: With CCOc1ccc(-c2nnc(SCC(=O)NCc3ccc(C)cc3)nc2-c2ccc(OCC)cc2)cc1 as the compound, how does the “activity change, negative = cytotoxicity” value read?
Answer: Its value is inactive: 6.68%.

Question: For CCc1ccc(Nc2nc(N)nc(CSc3nc4ccccc4s3)n2)cc1, which Potency is on record?
Answer: The Potency was inconclusive: 20 µM [cytotoxic, partial curve, poor fit].

Question: For O=C(NCc1cccc(F)c1)c1cccc(NC(=O)c2nsc3ccccc23)c1, which Potency is on record?
Answer: The Potency was inconclusive: 31.6 µM [cytotoxic, single point].

Question: With Nc1ccc(CCc2nc3ccccc3o2)cc1 as the compound, how does the Potency read?
Answer: The Potency was inconclusive: 12.6 µM [cytotoxic, partial curve].

Question: With O=C(Nc1ccc2c(c1)OCO2)c1cccc(Cl)c1 as the compound, how does the Potency read?
Answer: The Potency was inconclusive: 20 µM [cytotoxic, single point].

Question: For N#Cc1ccc(-c2cccs2)nc1SCC(=O)Nc1cccc(C(F)(F)F)c1, which Potency is on record?
Answer: The Potency was inconclusive: 31.6 µM [cytotoxic, single point].

Question: Which Potency does the source give for COc1ccc(NC(=O)Cn2c(SCc3ccc(C)cc3)nc3cccnc32)cc1OC here?
Answer: The Potency was active: 3.16 µM.

Question: For CN(c1ccccc1)S(=O)(=O)c1ccc(NC(=O)c2nc(S(C)(=O)=O)ncc2Cl)cc1, which Potency is on record?
Answer: Its Potency is inconclusive: 25.1 µM [cytotoxic, single point].

Question: With Cc1cccc(NC(=O)c2ccc(-c3ccccc3)s2)c1 as the compound, how does the Potency read?
Answer: The Potency was inconclusive: 15.8 µM [cytotoxic, single point].

Question: For CCCCNC1C(CC)C(CCC)C(C#N)(C#N)C1(C#N)C#N (stereo not given), which Potency is on record?
Answer: Its Potency is inconclusive: 31.6 µM [cytotoxic, single point].

Question: Which Potency does the source give for CCOC(=O)Cc1csc(NC(=O)CSc2nnc(-c3ccc(C)cc3)o2)n1 here?
Answer: The Potency was active: 12.6 µM.

Question: For CCNc1ncc2nc(-c3cccc(C#N)c3)c(=O)n(Cc3cccc(OC)c3)c2n1, which “activity change, negative = cytotoxicity” value is on record?
Answer: The value was inactive: 2.77%.

Question: With CC(C)(C)c1ccc(/C=C/C(=O)Nc2ccc(S(N)(=O)=O)cc2)cc1 as the compound, how does the Potency read?
Answer: Its Potency is inconclusive: 31.6 µM [cytotoxic, single point].

Question: With COc1ccccc1-c1nc(-c2ccccn2)no1 as the compound, how does the Potency read?
Answer: The Potency was active: 3.98 µM.

Question: Which “activity change, negative = cytotoxicity” value does the source give for CC(C)(C)OC(=O)N1CCC(c2c(C(=O)NCc3ccco3)cnn2-c2ccccc2Cl)CC1 here?
Answer: The value was inactive: 8.66%.

Question: With Brc1ccc(-c2nc3ccccc3s2)s1 as the compound, how does the Potency read?
Answer: The Potency was inconclusive: 20 µM [cytotoxic, single point].

Question: For Cc1ccc(C(=O)Nc2ccc(S(=O)(=O)Nc3onc(C)c3C)cc2)cc1, which Potency is on record?
Answer: The Potency was inconclusive: 25.1 µM [cytotoxic, single point].

Question: With COc1ccccc1-n1cc(C(=O)NCC(=O)N2CCN(c3ccccc3)CC2)c2ccccc2c1=O as the compound, how does the Potency read?
Answer: The Potency was active: 12.6 µM.

Question: With N#Cc1c(-n2ncnc2-c2ccccc2C(F)(F)F)sc2c1CCCCC2 as the compound, how does the Potency read?
Answer: Its Potency is inconclusive: 2 µM [cytotoxic, full curve].

Question: For CN1/C(=C/C(=O)C2CCC2)Sc2ccccc21, which Potency is on record?
Answer: Its Potency is inconclusive: 10 µM [cytotoxic, single point].

Question: With CCCOC(=O)Nc1nc2ccccc2o1 as the compound, how does the Potency read?
Answer: The Potency was active: 10 µM.

Question: With COc1ccc(Cl)cc1Nc1cc(C)nc2nc(C)nn12 as the compound, how does the “activity change, negative = cytotoxicity” value read?
Answer: Its value is inactive: -9.5%.

Question: Which Potency does the source give for Cn1nnc(NC(=O)c2ccc3ccccc3c2)n1 here?
Answer: The Potency was inconclusive: 20 µM [cytotoxic, partial curve].

Question: For O=C(Nc1cccc2ccccc12)OC1C=CS(=O)(=O)C1 (stereo not given), which Potency is on record?
Answer: The Potency was inconclusive: 15.8 µM [cytotoxic, single point].

Question: With O=C(CC1(O)C(=O)Nc2cc(Cl)cc(Cl)c21)c1ccncc1 (stereo not given) as the compound, how does the Potency read?
Answer: Its Potency is inconclusive: 25.1 µM [cytotoxic, single point].

Question: Which Potency does the source give for CCOc1ccc(-c2nonc2NC(=O)c2oc3cc(Br)ccc3c2C)cc1 here?
Answer: Its Potency is inconclusive: 5.62 µM [cytotoxic, single point].

Question: Which Potency does the source give for Cc1c(NC(=O)c2c(F)c(F)c(F)c(F)c2F)c(=O)n(-c2ccccc2)n1C here?
Answer: Its Potency is inconclusive: 25.1 µM [cytotoxic, single point].

Question: Which Potency does the source give for Cn1c(-c2ccccc2)cnc1SCC(=O)N1CCCCC1 here?
Answer: The Potency was inconclusive: 22.4 µM [cytotoxic, single point].

Question: With Cc1oncc1C(=O)Nc1ccc(C(F)(F)F)cc1 as the compound, how does the Potency read?
Answer: Its Potency is inconclusive: 10 µM [cytotoxic, partial curve].

Question: For COc1ccc(NC(=O)c2nc(S(=O)(=O)Cc3ccc(C)cc3)ncc2Cl)cc1, which Potency is on record?
Answer: The Potency was inconclusive: 25.1 µM [cytotoxic, single point].

Question: With COc1cccc(-c2nc(-c3ccccn3)no2)c1OC as the compound, how does the Potency read?
Answer: Its Potency is inconclusive: 31.6 µM [cytotoxic, single point].

Question: For Cc1ccc(N2C(=O)C(CC(=O)Nc3ccccc3)N(CCC3=CCCCC3)C2=O)cc1 (stereo not given), which Potency is on record?
Answer: Its Potency is inconclusive: 20 µM [cytotoxic, single point].

Question: For COc1ccc(-n2nc(C(=O)NCC(=O)N3CCN(c4ccccn4)CC3)c3ccccc3c2=O)cc1, which Potency is on record?
Answer: The Potency was active: 12.6 µM.

Question: Which Potency does the source give for O=C(CCS(=O)(=O)c1nc(-c2cccs2)cc(C(F)(F)F)n1)Nc1cccc(O)c1 here?
Answer: The Potency was inconclusive: 25.1 µM [cytotoxic, single point].

Question: For Cc1ccc(C)c(CN2C(=O)C(O)(c3c[nH]c4ccccc34)c3ccccc32)c1 (stereo not given), which Potency is on record?
Answer: The Potency was inconclusive: 31.6 µM [cytotoxic, single point].

Question: With CCN(CC)C(=O)C1CCCc2c1[nH]c1ccc(Cl)cc21 (stereo not given) as the compound, how does the Potency read?
Answer: Its Potency is inconclusive: 1 µM [cytotoxic, full curve].

Question: With Clc1ccc2[nH]c3c(c2c1)CCc1cn[nH]c1-3 as the compound, how does the “activity change, negative = cytotoxicity” value read?
Answer: The value was inactive: 20.9%.

Question: Which Potency does the source give for CCOc1ccc(-c2nnc(N)s2)cc1 here?
Answer: The Potency was inconclusive: 10 µM [cytotoxic, partial curve].

Question: Which Potency does the source give for O=C(N/N=C\c1ccc2c(c1)CCC2)c1ccccc1O here?
Answer: Its Potency is inconclusive: 3.98 µM [cytotoxic, single point].

Question: With CC(C)CC(/C(O)=C(\C#N)c1nc2ccccc2[nH]1)N1C(=O)c2ccccc2C1=O (stereo not given) as the compound, how does the “activity change, negative = cytotoxicity” value read?
Answer: Its value is inactive: 17.1%.

Question: For CC(C)c1nnc(NC(=O)c2nc(S(=O)(=O)Cc3ccccc3)ncc2Cl)s1, which Potency is on record?
Answer: Its Potency is active: 20 µM.

Question: For COc1cccc(CNc2nc3ccccc3n2CCN2CCCCC2)c1OC, which Potency is on record?
Answer: The Potency was inconclusive: 22.4 µM [cytotoxic, partial curve, poor fit].

Question: For c1coc(-c2nnc(NC3=NCCC3)o2)c1, which Potency is on record?
Answer: The Potency was inconclusive: 20 µM [cytotoxic, single point].

Question: With O=C(Cn1c(=O)nc(-c2ccccc2)c2cc(Cl)ccc21)NCCCc1ccccc1 as the compound, how does the Potency read?
Answer: Its Potency is inconclusive: 31.6 µM [cytotoxic, single point].

Question: Which Potency does the source give for COc1cc2nc(N3CCN(C(=O)[C@H]4COc5ccccc5O4)CC3)nc(N)c2cc1OC here?
Answer: The Potency was inconclusive: 25.1 µM [cytotoxic, single point].

Question: With CCSc1nc(=O)c2c(n1C)NC(=O)CC2c1ccc(O)cc1OC (stereo not given) as the compound, how does the Potency read?
Answer: The Potency was inconclusive: 3.16 µM [cytotoxic, single point].

Question: Which Potency does the source give for Cc1cccc(C(=O)N(Cc2nc(-c3ccc(Cl)cc3)no2)C(C)C)c1 here?
Answer: The Potency was inconclusive: 5.62 µM [cytotoxic, single point].

Question: Which “activity change, negative = cytotoxicity” value does the source give for CN(Cc1ccccc1)c1nc2c(c(=O)n(C)c(=O)n2C)n1CCCc1ccccc1 here?
Answer: Its value is inactive: -27.4%.
